{"source": "PubChem BioAssay AID504332", "about": "(National Center for Advancing Translational Sciences (NCATS), 2011)", "note": "Among all 350,000 compounds or so, about 31,000 (8.9%) were called active. Inconclusive results, whose numbers are uncertain, are shown with a selection of clear calls. Calls follow the shape of the dose curve; as a rule, active = well fitted inhibition curve with a large enough effect; inconclusive = small, poorly fitted or top-dose-only effect; inactive = no such curve, though single readings can be large or run the other way. Potencies beside an inconclusive call are fits to weak or partial responses and may not hold up. % is scaled to controls: 0 for no effect and ±100 for the full control effect; potency is read from the fitted curve at half-maximal effect; tags tell the direction and shape of the fitted curve."}
{"molecular_target": "Histone-lysine N-methyltransferase EHMT2 (Homo sapiens) (UniProt Q96KQ7)", "sequence (Q96KQ7 whole entry, looked up)": "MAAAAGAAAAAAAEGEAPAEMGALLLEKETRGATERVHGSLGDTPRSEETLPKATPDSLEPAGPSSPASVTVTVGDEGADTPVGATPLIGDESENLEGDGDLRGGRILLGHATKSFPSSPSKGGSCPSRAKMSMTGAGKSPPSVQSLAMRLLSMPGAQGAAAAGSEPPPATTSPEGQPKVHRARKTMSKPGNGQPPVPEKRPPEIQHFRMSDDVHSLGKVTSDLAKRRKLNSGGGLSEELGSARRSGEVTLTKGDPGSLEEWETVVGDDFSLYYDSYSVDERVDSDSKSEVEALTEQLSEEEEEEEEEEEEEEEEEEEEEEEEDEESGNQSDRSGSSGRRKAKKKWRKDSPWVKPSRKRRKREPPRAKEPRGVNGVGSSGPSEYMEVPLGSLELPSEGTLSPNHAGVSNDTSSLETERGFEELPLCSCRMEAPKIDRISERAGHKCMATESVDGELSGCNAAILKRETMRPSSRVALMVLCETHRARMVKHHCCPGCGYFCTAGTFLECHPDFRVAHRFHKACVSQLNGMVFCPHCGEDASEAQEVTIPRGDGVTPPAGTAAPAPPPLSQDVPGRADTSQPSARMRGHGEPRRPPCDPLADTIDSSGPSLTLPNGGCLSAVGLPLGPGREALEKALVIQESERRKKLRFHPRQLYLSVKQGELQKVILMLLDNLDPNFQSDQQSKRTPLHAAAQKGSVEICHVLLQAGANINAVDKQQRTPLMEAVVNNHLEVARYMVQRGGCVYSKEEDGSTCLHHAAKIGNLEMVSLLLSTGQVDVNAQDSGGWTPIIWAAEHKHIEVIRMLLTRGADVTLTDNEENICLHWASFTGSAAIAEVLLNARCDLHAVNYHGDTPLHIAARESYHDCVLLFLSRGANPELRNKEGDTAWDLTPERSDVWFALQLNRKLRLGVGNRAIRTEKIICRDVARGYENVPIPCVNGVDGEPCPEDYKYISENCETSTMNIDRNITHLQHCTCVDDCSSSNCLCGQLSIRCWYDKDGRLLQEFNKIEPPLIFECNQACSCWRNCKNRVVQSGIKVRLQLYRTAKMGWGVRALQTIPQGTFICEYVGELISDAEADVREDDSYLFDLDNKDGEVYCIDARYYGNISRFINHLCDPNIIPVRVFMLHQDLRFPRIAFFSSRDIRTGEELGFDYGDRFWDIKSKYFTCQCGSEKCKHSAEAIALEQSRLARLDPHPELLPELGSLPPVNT", "assay": "qHTS Assay for Inhibitors of Histone Lysine Methyltransferase G9a; also: nearly all actives have a fitted effect of over 75% in size", "conditions": "G9a H3K9 monomethylation, AlphaScreen, 2 h; activity, negative = inhibition: at 59 µM (top of the series) unless noted", "procedure,_shortened": "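Quantitative HTS format: methyltransferase activity on a biotin-tagged H3K9 peptide is measured by AlphaScreen, using a rabbit anti-monomethyl-H3K9 antibody with streptavidin donor and anti-IgG acceptor beads. Final levels are 20 nM enzyme, 500 nM peptide, 20 uM SAM; 2 h RT.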"}
{"compound": "CCOc1cc(/C=C(\\C(=O)O)c2ccc(S(=O)(=O)N3CCCC3)s2)ccc1OC", "activity, negative = inhibition": "inactive: -6.29% [at 12.7 µM]"}
{"compound": "Cc1noc(C)c1-c1nccc(Nc2ccc(F)cc2)n1", "activity, negative = inhibition": "inactive: 2.07% [at 0.501 µM]"}
{"compound": "COc1ccc(C(=O)ON=C2C=C(C)C(=O)C(C)=C2)cc1", "activity, negative = inhibition": "inactive: 5.74% [at 102 µM]"}
{"compound": "CCOc1cc(/C=N/n2c(COc3ccccc3)n[nH]c2=S)ccc1O", "Potency": "active: 4.47 µM"}
{"compound": "CC1=Nc2cc(C(=O)NCCc3ccc(Cl)cc3)ccc2Sc2ccc(C)cc21", "activity, negative = inhibition": "inactive: -30.4%"}
{"compound": "C=C(C)CSc1nnc(-c2ccccc2)n1N", "Potency": "inconclusive: 39.8 µM [inhibitor, single point]"}
{"compound": "O=C(O)c1ccc(OCc2ccc(C(=O)O)o2)cc1", "Potency": "inconclusive: 89.1 µM [inhibitor, single point]"}
{"compound": "CS(=O)(=O)c1ccc2nc(NC(=O)CN3C(=O)NC4(CCCC4)C3=O)sc2c1", "Potency": "inconclusive: 89.1 µM [inhibitor, single point]"}
{"compound": "Cc1ccc(-n2c(C)n[nH]c2=S)cc1", "Potency": "active: 22.4 µM"}
{"compound": "Cc1nc2sccn2c(=O)c1S(=O)(=O)NCC(C)c1ccccc1", "note": "(centres undefined)", "activity, negative = inhibition": "inactive: 3.03% [at 102 µM]"}
{"compound": "Cn1c(=O)c2c(SCC(=O)N3CCc4ccccc43)nc(-c3ccccc3Cl)nc2n(C)c1=O", "Potency": "inconclusive: 31.6 µM [inhibitor, single point]"}
{"compound": "CC(/C=C1\\SC(=S)N(CCC(=O)Nc2ccc(O)cc2)C1=O)=C\\c1ccccc1", "activity, negative = inhibition": "inactive: -13.1% [at 102 µM]"}
{"compound": "Cc1ccc(C)n1-c1ccc(C(=O)/C=C/N(C)C)cc1", "Potency": "inconclusive: 79.4 µM [inhibitor, partial curve, poor fit]"}
{"compound": "O=C(CCCSc1nc2ccccc2[nH]1)Nc1nnc(C2CC2)s1", "Potency": "inconclusive: 44.7 µM [inhibitor, partial curve]"}
{"compound": "CCOC(=O)c1sc2nc(C)[nH]c(=O)c2c1C", "activity, negative = inhibition": "inactive: 14.5%"}
{"compound": "O=c1c2ccccc2nnn1COc1cccc2ccccc12", "activity, negative = inhibition": "inconclusive: -98.3% [inhibitor] [at 12.7 µM]"}
{"compound": "CCOc1ccc(NC(=O)c2ccc(N3CC4CC(C3)c3cccc(=O)n3C4)c(N)c2)cc1", "note": "(centres undefined)", "Potency": "inconclusive: 20 µM [inhibitor, single point]"}
{"compound": "COc1cc(-c2cc(C(=O)Nc3ccncc3)c3ccccc3n2)cc(OC)c1OC", "Potency": "inconclusive: 7.08 µM [inhibitor, single point]"}
{"compound": "COC(=O)C(Cc1c[nH]c2ccccc12)NC(=O)COc1ccc(Cl)cc1Cl", "note": "(centres undefined)", "Potency": "inconclusive: 39.8 µM [inhibitor, partial curve, poor fit]"}
{"compound": "CN(C)/C=N/c1[nH]ncc1C#N", "activity, negative = inhibition": "inactive: 43.7% [at 102 µM]"}
{"compound": "CC12CCC(C)(c3nc4ccccc4nc31)C2(C)C", "activity, negative = inhibition": "inactive: 15.3%"}
{"compound": "O=C(Nc1ccccc1)C1CCCCC1", "activity, negative = inhibition": "inactive: -0.557%"}
{"compound": "O=C1CC(C(=O)Nc2ccc(Cl)cc2)n2ncnc2N1", "note": "(centres undefined)", "Potency": "inconclusive: 89.1 µM [inhibitor, partial curve, poor fit]"}
{"compound": "CC(=O)c1cccc(NC(=O)CCOc2ccccc2)c1", "activity, negative = inhibition": "inactive: -6.75% [at 12.7 µM]"}
{"compound": "CCOc1ccccc1N1C(=O)CC(Nc2ccc(N3CCOCC3)cc2)C1=O", "note": "(centres undefined)", "Potency": "inconclusive: 44.7 µM [inhibitor, partial curve, poor fit]"}
{"compound": "Cc1cccc(N=C2NN=C(c3ccccc3F)CS2)c1C", "Potency": "inconclusive: 79.4 µM [inhibitor, partial curve, poor fit]"}
{"compound": "O=C(Cn1c(=O)nc(-c2ccccc2)c2ccccc21)Nc1ccc(Cl)c(C(F)(F)F)c1", "activity, negative = inhibition": "inactive: -1.8% [at 12.7 µM]"}
{"compound": "Cc1nn(-c2ccccc2)c(Cl)c1CN(C(=O)CCl)c1ccc(Cl)cc1", "Potency": "inconclusive: 1.58 µM [inhibitor, full curve]"}
{"compound": "CCSc1sccc1C1C(C#N)=C(N)N(c2cccnc2)C2=C1C(=O)CC(C)(C)C2", "note": "(centres undefined)", "Potency": "inconclusive: 50.1 µM [inhibitor, partial curve, poor fit]"}
{"compound": "CCc1cc(C(=O)Nc2cc(S(=O)(=O)N(CC)CC)ccc2N2CCOCC2)sc1C", "Potency": "active: 39.8 µM"}
{"compound": "O=C(CSc1nc(-c2ccccc2)no1)N1CCN(c2ccccc2F)CC1", "activity, negative = inhibition": "inactive: 5.01%"}
{"compound": "COc1cccc(C2=CC(c3ccc(OC)c(OC)c3OC)n3ncnc3N2)c1", "note": "(centres undefined)", "Potency": "inconclusive: 14.1 µM [inhibitor, partial curve, poor fit]"}
{"compound": "COC(=O)[C@H]1[C@H]2C[C@H]3c4[nH]c5ccccc5c4CCN3C[C@H]2CC[C@@H]1O", "Potency": "inactive"}
{"compound": "COc1ccc(C(=O)c2cn(CC(=O)Nc3ccc4c(c3)OCCO4)c3ccc(OC)cc3c2=O)cc1", "Potency": "inconclusive: 8.91 µM [inhibitor, partial curve, poor fit]"}
{"compound": "O=C(O)COc1ccccc1/C=N/NC(=O)CSc1nc2ccccc2c(=O)n1-c1ccc(Cl)cc1", "Potency": "inconclusive: 70.8 µM [inhibitor, partial curve, poor fit]"}
{"compound": "C/C(=N/NC(=O)CNC(=O)/C=C/c1ccco1)c1ccc(Cl)cc1", "activity, negative = inhibition": "inactive: -38.4% [at 102 µM]"}
{"compound": "Cc1ccc(C)c(NC(=S)NCCN(C2CCCCC2)C2CCCC2)c1", "Potency": "inconclusive: 39.8 µM [inhibitor, single point]"}
{"compound": "O=C(CSc1nnc(-c2cccnc2)n1-c1ccc(SC(F)F)cc1)N1CCCc2ccccc21", "Potency": "inconclusive: 28.2 µM [inhibitor, single point]"}
{"compound": "O=C(Nc1nc2n(n1)C(c1ccccc1)C=C(c1ccccc1)N2)c1ccc(Cl)c([N+](=O)[O-])c1", "note": "(centres undefined)", "Potency": "inconclusive: 39.8 µM [inhibitor, partial curve, poor fit]"}
{"compound": "CCC(C)NC(=O)Cn1ncc2c([nH]c3ccc(C)cc32)c1=O", "note": "(centres undefined)", "activity, negative = inhibition": "inactive: 0.43%"}
{"compound": "O=C(Nc1nc2ccc(S(=O)(=O)N3CCCCC3)cc2s1)c1cccnc1", "Potency": "inconclusive: 4.47 µM [inhibitor, single point]"}
{"compound": "COc1cc2c(cc1OC)CN(C(=O)CCc1c[nH]c3ccccc13)[C@H](C(=O)O)C2", "Potency": "active: 70.8 µM"}
{"compound": "O=c1[nH]c(SCc2cccc([N+](=O)[O-])c2)nc2[nH]ncc12", "activity, negative = inhibition": "inactive: -1.9% [at 102 µM]"}
{"compound": "Cc1cccc(C)c1Nc1sc(C(=O)c2ccccc2)c(N)c1C(=O)Nc1ccc(F)cc1", "Potency": "inconclusive: 39.8 µM [inhibitor, single point]"}
{"compound": "O=C(Cc1cccs1)Nn1c(Cc2cccs2)nc2ccccc2c1=O", "Potency": "inconclusive: 1.41 µM [inhibitor, full curve, poor fit]"}
{"compound": "COc1cccc(Cn2cccc(NC(=O)NC3CCCCC3)c2=O)c1", "activity, negative = inhibition": "inconclusive: -54.1% [inhibitor]"}
{"compound": "COC(=O)CSc1nc(-c2cccs2)ccc1C#N", "Potency": "active: 31.6 µM"}
{"compound": "COc1ccc(C(=O)/C=C/C(=O)N(CC(=O)NC2CCCCC2)Cc2cccs2)c(O)c1", "Potency": "active: 15.8 µM"}
{"compound": "N#CCSc1nnc(COc2cccc3ccccc23)n1-c1ccccc1", "Potency": "inconclusive: 39.8 µM [inhibitor, partial curve]"}
{"compound": "CCOC(=O)c1c(C)[nH]c(C2=NNC(=Nc3cccc(Cl)c3)SC2)c1C", "Potency": "inconclusive: 39.8 µM [inhibitor, single point]"}
{"compound": "N#Cc1c2n(c(=S)n(-c3ccccc3[N+](=O)[O-])c1=O)CCCCC2", "Potency": "active: 39.8 µM"}
{"compound": "CCCCOc1ccccc1N1CCN(CCCN2C(=O)C3CCCN3C2=O)CC1", "note": "(centres undefined)", "Potency": "inconclusive: 89.1 µM [inhibitor, single point]"}
{"compound": "CCCOP(=O)(c1ccc(N(C)C)cc1)C(O)c1cc(OC)ccc1OC", "note": "(centres undefined)", "activity, negative = inhibition": "inactive: 12.7% [at 102 µM]"}
{"compound": "Cc1nn(-c2ccccc2)c(C)c1NC(=O)COC(=O)c1ccc(Cl)c(S(N)(=O)=O)c1", "Potency": "inconclusive: 44.7 µM [inhibitor, partial curve, poor fit]"}
{"compound": "COc1cc(-c2nnc(SCC(=O)Nc3cc(C)on3)n2C)cc(OC)c1O", "Potency": "inconclusive: 39.8 µM [inhibitor, single point]"}
{"compound": "Cc1ccc(C(=O)Cn2nnc(-c3ccccc3)n2)cc1", "Potency": "inconclusive: 100 µM [inhibitor, partial curve, poor fit]"}
{"compound": "Cc1ccc(NC(=O)c2c(C)oc3ccc(O)c(CN4CCCCCC4)c23)c(C)c1", "activity, negative = inhibition": "inactive: -30.2%"}
{"compound": "CN(CC(=O)Nc1ccccc1Cl)C(=O)c1cc(C2CC2)nn1-c1ccccc1", "Potency": "inconclusive: 8.91 µM [inhibitor, partial curve, poor fit]"}
{"compound": "O=C(OC1CCOC1=O)c1ccc2ccccc2n1", "note": "(centres undefined)", "Potency": "inconclusive: 22.4 µM [inhibitor, single point]"}
{"compound": "CCOC(=O)c1sc(NC(=O)Nc2ccc(F)cc2)nc1C", "Potency": "inconclusive: 89.1 µM [inhibitor, single point]"}
{"compound": "O=C(NC(=S)Nc1ccc(S(=O)(=O)NC2CCCCC2)cc1)c1cccs1", "Potency": "inconclusive: 44.7 µM [inhibitor, partial curve]"}
{"compound": "O=C(CCNC(=O)c1ccc(Br)cc1)Nc1cccc(S(=O)(=O)N2CCCCC2)c1", "Potency": "inconclusive: 50.1 µM [inhibitor, partial curve, poor fit]"}
{"compound": "COc1ccc(CNCc2cn(-c3cccc(F)c3)nc2-c2ccc(C)o2)cc1", "Potency": "active: 44.7 µM"}
{"compound": "Cn1cc(CN2CC3C[C@@H]4CC2C[C@H](C3)C4)c(-c2ccc3c(c2)OCCO3)n1", "Potency": "active: 50.1 µM"}
{"compound": "COc1ccccc1CNC(=O)c1ccc(NS(=O)(=O)c2cccs2)cc1", "activity, negative = inhibition": "inactive: 20.5% [at 102 µM]"}
{"compound": "CCC(C(=O)OCC(=O)Nc1ccc(Cl)c(S(=O)(=O)N(C)C)c1)c1ccccc1", "note": "(centres undefined)", "Potency": "inconclusive: 2.51 µM [inhibitor, partial curve]"}
{"compound": "O=C(Nc1ccc([N+](=O)[O-])cc1)c1cc2ccccc2nc1Cl", "activity, negative = inhibition": "inconclusive: -84.9% [inhibitor]"}
{"compound": "Cn1c(-c2ccc(Br)o2)nc2cc(Br)ccc21", "Potency": "inconclusive: 14.1 µM [inhibitor, partial curve, poor fit]"}
{"compound": "Cc1csc(NC(=O)c2ccc(C)c([N+](=O)[O-])c2)n1", "Potency": "active: 10 µM"}
